The supplement of paper PMC3334620
In all, about 33,000 sequences were measured (“E-score (-0.5 to 0.5)”: median about -0.056, highest 2% from about 0.38 on). Some of the results follow.

Each sequence was assayed against Stb4 (UniProt P50104) (assay: PBM E-score (8-mer binding enrichment) (E-score (-0.5 to 0.5)); higher = stronger / more preferred TF binding; most listed sequences are background and not binding sites). Conditions: protein concentration: 200 nM; construct: GST-DNA-binding domain.
Method in brief: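 The E-score, a modified Wilcoxon-Mann-Whitney statistic, was computed by the Universal PBM Analysis Suite for every ungapped eight-base word pooled with its reverse complement. Scans behind it were normalised with masliner after bound GST-tagged yeast transcription factors were detected with fluorescent anti-GST. The proteins, at about 100-200 nM, had been applied to universal all-10-mer Agilent arrays made double-stranded by primer extension.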

Compared with ACAGGCCT, CTCTGTAA is higher in “PBM E-score” value: -0.146 for the first, -0.141 for the second.

Compared with GCTTCCGA, ATATGGTG is lower in “PBM E-score” value: 0.473 for the first, 0.0316 for the second.

Compared with CCAACTTC, GACCAGTA is higher in “PBM E-score” value: -0.0561 for the first, 0.0643 for the second.

Compared with GTGAATTA, ACCCCCAG is higher in “PBM E-score” value: -0.0848 for the first, -0.0515 for the second.

First: CATTAAGA
Second: TATGCAGA
The “PBM E-score” value of the first is lower: -0.226 for the first, -0.133 for the second.

Going from GGGCTCTA to AGCAGCCC, the “PBM E-score” value falls from 0.0116 to -0.117.

Going from ACATAAAG to CCCATCGA, the “PBM E-score” value falls from -0.0881 to -0.135.

Compared with CGATACCG, AAGTAGGA is lower in “PBM E-score” value: 0.178 for the first, -0.284 for the second.

Compared with ACAGGTTC, ACTTGCTA is lower in “PBM E-score” value: -0.0259 for the first, -0.196 for the second.

Compared with GTAAGTGA, CGATATGA is higher in “PBM E-score” value: 0.0633 for the first, 0.183 for the second.

Going from AGGACGTA to GGTCGGAA, the “PBM E-score” value rises from -0.0905 to 0.439.

Compared with AAAACAGG, CAGTCAAC is higher in “PBM E-score” value: -0.238 for the first, -0.128 for the second.

Compared with ATGCACAG, AATGTCAA is higher in “PBM E-score” value: -0.104 for the first, -0.0622 for the second.

Going from AGACAACC to CAGTTTTC, the “PBM E-score” value falls from 0.19 to 0.0444.

First: AGCCTGAG
Second: GCTGAAAC
The “PBM E-score” value of the first is lower: -0.231 for the first, 0.0652 for the second.

First: CATACTCC
Second: AGTTGCTG
The “PBM E-score” value of the first is higher: 0.209 for the first, -0.0319 for the second.

Going from CGCATAAG to AAGATACG, the “PBM E-score” value rises from 0.0113 to 0.0517.

First: AATGCTGG
Second: AGACTCGC
The “PBM E-score” value of the first is higher: -0.0329 for the first, -0.155 for the second.

Compared with ACGGGGCA, ATTCTGGG is higher in “PBM E-score” value: -0.13 for the first, -0.0757 for the second.

Going from CCCGCGGA to AAACCAAG, the “PBM E-score” value falls from 0.289 to -0.193.

Compared with GACAGCTA, ATGAGTCG is higher in “PBM E-score” value: -0.254 for the first, -0.13 for the second.

Going from AATTGCTA to CTCCTCCC, the “PBM E-score” value rises from -0.167 to 0.0972.

Going from ACCCCCGT to CCTTACGC, the “PBM E-score” value falls from -0.0992 to -0.135.

Compared with AATTACTA, CATATTAC is higher in “PBM E-score” value: -0.0528 for the first, 0.129 for the second.

Going from CCTATGTA to GTATAGAC, the “PBM E-score” value rises from -0.241 to -0.101.

Compared with AGCAGGTA, ACCAAGGC is lower in “PBM E-score” value: 0.0335 for the first, -0.0734 for the second.

First: CAAACCGG
Second: CGCAAACG
The “PBM E-score” value of the first is higher: 0.175 for the first, -0.0485 for the second.

First: CGGCGCTA
Second: GCAGATGA
The “PBM E-score” value of the first is higher: 0.113 for the first, -0.138 for the second.

First: CCTGCAAC
Second: ATACAGGC
The “PBM E-score” value of the first is lower: -0.22 for the first, -0.192 for the second.

First: ATTAAATA
Second: AGATGTAC
The “PBM E-score” value of the first is higher: 0.152 for the first, -0.311 for the second.

Going from ATTATCAG to CGATGAGA, the “PBM E-score” value rises from -0.0427 to 0.0371.

Compared with AGGGTAAC, CATGTGGA is higher in “PBM E-score” value: -0.27 for the first, -0.201 for the second.

Compared with ATCACACC, GGGCTCAC is lower in “PBM E-score” value: 0.241 for the first, -0.195 for the second.

First: AGACGAAC
Second: ACCAGGTC
The “PBM E-score” value of the first is lower: -0.287 for the first, 0.0113 for the second.

First: CTCTACAC
Second: AGGATATC
The “PBM E-score” value of the first is lower: -0.117 for the first, 0.0132 for the second.

Going from AGTGTCCG to ATAGTCAC, the “PBM E-score” value falls from 0.185 to -0.107.

First: ATCCGGGA
Second: GCTCTGAA
The “PBM E-score” value of the first is higher: 0.368 for the first, -0.0645 for the second.

First: ACGGTAAC
Second: AAGGTCCC
The “PBM E-score” value of the first is higher: 0.136 for the first, -0.103 for the second.

Compared with CTTGATCA, CAGACCGA is higher in “PBM E-score” value: -0.134 for the first, 0.204 for the second.

First: ACGAATCT
Second: GCCACAAA
The “PBM E-score” value of the first is lower: -0.00138 for the first, 0.00336 for the second.

Going from CGATTCAA to CTTCACCA, the “PBM E-score” value rises from -0.136 to 0.00499.

First: AGGAAATA
Second: ACACTCAG
The “PBM E-score” value of the first is higher: 0.0284 for the first, -0.126 for the second.

Compared with AATTGTAT, CACTTCCC is higher in “PBM E-score” value: -0.0384 for the first, 0.0457 for the second.

Compared with ATTTTGGA, TGTCAAAA is higher in “PBM E-score” value: -0.0131 for the first, 0.00959 for the second.

First: ACAGTGTC
Second: CTCTAGGA
The “PBM E-score” value of the first is higher: -0.155 for the first, -0.171 for the second.

First: CTGAAATC
Second: AAAAAAGG
The “PBM E-score” value of the first is lower: -0.0865 for the first, 0.133 for the second.

Going from GAAAATCA to CAGGACAA, the “PBM E-score” value falls from 0.106 to -0.0613.

Going from CCGGCCGC to CCGTACGA, the “PBM E-score” value falls from 0.139 to -0.0515.

Compared with AGTCATGC, CCCACGTA is lower in “PBM E-score” value: -0.0165 for the first, -0.241 for the second.

First: CCACCCCC
Second: CTTGTATA
The “PBM E-score” value of the first is higher: -0.0892 for the first, -0.132 for the second.

Going from CAAGAAAG to CCAATCAC, the “PBM E-score” value rises from -0.0821 to -0.0745.

First: TCTAACAA
Second: TCCCGGCA
The “PBM E-score” value of the first is lower: -0.0695 for the first, 0.298 for the second.

Compared with AGGAACCA, AGTACTGC is higher in “PBM E-score” value: -0.145 for the first, -0.134 for the second.

Compared with ATGTGCTG, GTCTGTGA is lower in “PBM E-score” value: -0.0682 for the first, -0.234 for the second.

Going from AGGAATCA to AGCCCTGA, the “PBM E-score” value falls from -0.00647 to -0.232.

First: ACTGAATC
Second: GAGTCGTA
The “PBM E-score” value of the first is lower: -0.099 for the first, -0.0616 for the second.

Compared with GGCCCGTA, AATTCTAT is lower in “PBM E-score” value: 0.162 for the first, -0.0705 for the second.

Going from CCTTTGCG to GTTGTGTA, the “PBM E-score” value falls from -0.0443 to -0.126.

Compared with CGGCCACC, GCATCGAC is lower in “PBM E-score” value: 0.134 for the first, -0.0573 for the second.

Going from TAACCCCA to CCAATGAC, the “PBM E-score” value falls from -0.0162 to -0.221.

Compared with CCAGGCGA, ATCAGCTG is higher in “PBM E-score” value: -0.178 for the first, -0.139 for the second.

Compared with GATCGTTA, CACCAGAA is lower in “PBM E-score” value: -0.0474 for the first, -0.172 for the second.

Going from TCCTAAAA to GATGACGA, the “PBM E-score” value rises from -0.159 to -0.131.

Going from AGGACACA to CTTCCGAA, the “PBM E-score” value rises from -0.174 to 0.479.

Going from ACACGGCT to AATTGCTG, the “PBM E-score” value falls from 0.251 to -0.143.

First: ATACCAAC
Second: GCCATGAA
The “PBM E-score” value of the first is lower: -0.0701 for the first, 0.0133 for the second.

Compared with CATACGCG, CCCTTGCA is lower in “PBM E-score” value: 0.163 for the first, -0.292 for the second.

Compared with GGAGACGA, GTCAGACA is lower in “PBM E-score” value: 0.194 for the first, -0.0277 for the second.

Compared with ATGCGGCC, ATATTTAG is lower in “PBM E-score” value: -0.0252 for the first, -0.0263 for the second.

First: GATCCGGA
Second: ATACGGCG
The “PBM E-score” value of the first is higher: 0.421 for the first, -0.00354 for the second.

Going from AATTTCGC to ATAGCATC, the “PBM E-score” value falls from 0.123 to -0.061.

Going from CATTCCAA to CGCCAGAA, the “PBM E-score” value rises from -0.2 to -0.00332.

Compared with CTAGAAGA, AAGCTCCA is lower in “PBM E-score” value: 0.0374 for the first, -0.205 for the second.

First: ACCGGCCC
Second: TTAGGAAA
The “PBM E-score” value of the first is higher: 0.157 for the first, -0.0826 for the second.

First: CGGGTATC
Second: GCGGTCGA
The “PBM E-score” value of the first is higher: 0.404 for the first, 0.0679 for the second.

Compared with AGGAATAC, TGGGGCAA is lower in “PBM E-score” value: -0.0874 for the first, -0.317 for the second.

Going from CATAAAGC to GGGTTATA, the “PBM E-score” value rises from -0.299 to 0.0301.

Compared with ATACACAG, GGGGCCCA is higher in “PBM E-score” value: -0.189 for the first, -0.0108 for the second.

Going from CAAATCAG to TACGACGA, the “PBM E-score” value rises from -0.326 to -0.0447.

First: GGCTCATA
Second: CATTCCGA
The “PBM E-score” value of the first is lower: -0.0793 for the first, 0.449 for the second.

Going from CTGATAGC to AGCACCTC, the “PBM E-score” value rises from -0.0771 to -0.053.

Going from CCTAAATA to ACCCCAAA, the “PBM E-score” value rises from -0.0477 to -0.0209.

Going from ATATTTCA to AACAAGGG, the “PBM E-score” value rises from -0.129 to -0.0125.

First: AAACAAAC
Second: AAGATCTG
The “PBM E-score” value of the first is higher: -0.0932 for the first, -0.199 for the second.

Going from CTCCCAAA to CGCATCAA, the “PBM E-score” value rises from -0.171 to 0.0444.

Compared with AAAATGGT, ATTGACCC is higher in “PBM E-score” value: -0.00372 for the first, 0.0534 for the second.
